# Some of the results follow. At the low end of the ranking the order means little.
# Target: T1, GST-Rok (full length) (UniProt O34857)
# T1 sequence: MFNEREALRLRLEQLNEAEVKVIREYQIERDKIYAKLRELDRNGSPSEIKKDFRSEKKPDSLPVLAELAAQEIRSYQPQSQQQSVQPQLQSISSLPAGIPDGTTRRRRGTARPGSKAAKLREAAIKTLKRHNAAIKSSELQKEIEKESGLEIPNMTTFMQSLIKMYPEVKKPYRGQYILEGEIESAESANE
# Test: protein binding microarray;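 note: rank score from −0.5 (least bound) to 0.5 (best bound)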
# Details: Rok is a gene silencer of Bacillus subtilis; high values mean tight binding; most listed sequences are background and not binding sites; double strand, one strand shown
row,Sequence,binding signal
1,TATCTTAA,-0.00635 E-score
2,CTTTAGCC,-0.184 E-score
3,CGTGTTAC,0.0982 E-score
4,GGGCTCTA,0.0525 E-score
5,ATCCCGAA,0.0612 E-score
6,ATTAATCC,0.232 E-score
7,CAGGTCTA,0.00167 E-score
8,AACGGAGA,-0.0536 E-score
9,CACCTAAA,0.131 E-score
10,TTCCGCAA,0.142 E-score
11,ACCGTACA,0.157 E-score
12,GGTTTAAA,0.0123 E-score
13,CTCGTTAC,0.11 E-score
14,CCATCAGC,-0.247 E-score
15,AGCCGTCC,-0.298 E-score
16,CAAAGAGA,-0.365 E-score
17,CACCATAA,0.166 E-score
18,AGTGCGTA,0.164 E-score
19,TAGAGAAA,0.223 E-score
20,CCTGGGAG,-0.315 E-score
21,GGCATTTA,0.18 E-score
22,AGGGATCG,-0.337 E-score
23,AGAAGAGG,-0.171 E-score
24,CCGTTCCG,-0.337 E-score
25,CACACGAA,0.0616 E-score

row,Sequence,binding signal
1,CTAGCATA,0.201 E-score
2,AGTTTAGG,0.0837 E-score
3,CGACAAGA,-0.111 E-score
4,GTCCCCGA,-0.268 E-score
5,GGCAATAA,0.168 E-score
6,CTTATACC,0.244 E-score
7,CCCCCCGC,-0.442 E-score
8,TTCTCCAA,0.114 E-score
9,ACCGTCGA,0.0177 E-score
10,AACTCCGA,-0.0212 E-score
11,GCAATAGA,0.29 E-score
12,ACAATGCA,0.0247 E-score
13,AAGAGGCC,-0.219 E-score
14,CCTTGTGC,-0.181 E-score
15,GCCTCTAC,-0.00562 E-score
16,CAATGGAA,-0.041 E-score
17,TAAATCGA,0.0795 E-score
18,CATCCGGA,-0.0956 E-score
19,ACCTTCCA,-0.0109 E-score
20,GAGTGTAA,0.0681 E-score
21,ACCCGCCC,-0.0941 E-score
22,ACAGCACG,-0.0535 E-score
23,CACCTTTA,-0.0478 E-score
24,CTAAGTCC,-0.114 E-score
25,CCGGAATC,-0.0159 E-score

row,Sequence,binding signal
1,AATTTCTC,0.189 E-score
2,AATCGACG,-0.112 E-score
3,GGAACCCA,-0.14 E-score
4,AATCGGTA,0.119 E-score
5,CAGACCTG,-0.242 E-score
6,GGGCCAAC,-0.325 E-score
7,CCCGGGCC,-0.426 E-score
8,GATCCAGC,0.0112 E-score
9,AATACCCC,-0.205 E-score
10,CCTGTCTA,0.194 E-score
11,CCTCAACC,-0.245 E-score
12,TACTGCAA,0.104 E-score
13,AAGCTTCT,0.0357 E-score
14,GATTCAAC,-0.116 E-score
15,ACGGTGAA,0.0102 E-score
16,CGGGGTCA,-0.417 E-score
17,CACACAGA,-0.066 E-score
18,CAGGGCAA,-0.202 E-score
19,GTAGCAGA,0.108 E-score
20,TCCATAGA,0.114 E-score
21,ACCGAGTA,0.0133 E-score
22,AGCCTTGG,-0.204 E-score
23,CGTAAATC,0.0869 E-score
24,AATCGGCA,-0.0582 E-score
25,CGTTATTA,0.236 E-score

row,Sequence,binding signal
1,CACACAAA,0.0382 E-score
2,CGCCACGC,-0.413 E-score
3,CGTATCGC,-0.0302 E-score
4,ATTGATCG,0.0726 E-score
5,ACTCTCTC,-0.0673 E-score
6,AAGCAACG,-0.116 E-score
7,GCCAGAAA,-0.161 E-score
8,CCAGTGCA,-0.119 E-score
9,AGGTTAGA,-0.0489 E-score
10,GCAATCGA,0.025 E-score
11,GTCACGAA,-0.0178 E-score
12,TCGTTCAA,0.0056 E-score
13,AACAACGG,-0.259 E-score
14,ACGACTCT,-0.0544 E-score
15,AAACCACC,-0.0925 E-score
16,AGCTAATA,0.255 E-score
17,CTATGACA,0.117 E-score
18,ATTTCTCA,0.165 E-score
19,AAGTGATA,0.243 E-score
20,GGAGATAA,0.202 E-score
21,GCTCCATA,0.0969 E-score
22,CGATAGAA,0.344 E-score
23,AATTTGAA,0.0473 E-score
24,CTTTGTAC,0.158 E-score
25,AACCAATT,0.0583 E-score

row,Sequence,binding signal
1,ACATAGAA,0.242 E-score
2,CTGGAGTC,-0.224 E-score
3,AGTGACCA,-0.217 E-score
4,ACTATAAT,0.411 E-score
5,CTTGCACC,-0.0785 E-score
6,CCTGCAGC,-0.265 E-score
7,GAAATGTA,0.351 E-score
8,AGTACAGC,0.208 E-score
9,ACGGGGTC,-0.401 E-score
10,CACGACAA,-0.122 E-score
11,ATCTGTAG,0.291 E-score
12,CTCATGAC,-0.000829 E-score
13,CATTATTC,0.228 E-score
14,CAATCTGA,-0.0533 E-score
15,AGTTATTA,0.188 E-score
16,GCAGGCGC,-0.256 E-score
17,ATACTCCA,0.0647 E-score
18,GGCATATA,0.104 E-score
19,AAAGAACT,0.115 E-score
20,CCTGTTCC,-0.23 E-score
21,CCTACACC,-0.000572 E-score
22,CTCCTGCA,-0.233 E-score
23,ACAGGGAG,-0.272 E-score
24,GCGTTACC,-0.0226 E-score
25,TGCTTGAA,-0.0266 E-score

row,Sequence,binding signal
1,CGTAATTA,0.328 E-score
2,AAGTTGCA,0.0433 E-score
3,TAACGGTA,0.259 E-score
4,ATTCCAAC,0.228 E-score
5,CGCTGAGA,-0.373 E-score
6,AAGGGTCG,-0.372 E-score
7,ACGAAAAG,-0.0345 E-score
8,CCGTTAAG,-0.0263 E-score
9,CACATGAC,-0.00931 E-score
10,AGAGGACA,-0.229 E-score
11,CAGTTGCG,-0.0413 E-score
12,GTCCCTCA,-0.236 E-score
13,CCGACTAA,0.0388 E-score
14,ACCGGGGA,-0.132 E-score
15,CACGCTGG,-0.0903 E-score
16,CCACCATA,0.146 E-score
17,AAGAGATC,-0.0676 E-score
18,GAAGAAGA,-0.113 E-score
19,ACATGGTG,0.102 E-score
20,GGATGGTA,0.268 E-score
21,CGTGGGGA,-0.36 E-score
22,ACCGTTGA,0.0907 E-score
23,CACATATG,0.266 E-score
24,AGGCTGTA,0.00795 E-score
25,GTATCTCA,0.185 E-score

row,Sequence,binding signal
1,GGCGGTCA,-0.252 E-score
2,TCCTCAGA,-0.0248 E-score
3,GACTAGTA,0.365 E-score
4,ACCACTCG,-0.238 E-score
5,AGCGGACA,-0.166 E-score
6,ACTGAAGG,-0.276 E-score
7,AACGACCC,-0.282 E-score
8,CAGCAACA,0.13 E-score
9,GTAATACA,0.247 E-score
10,ATCGTATG,0.189 E-score
11,TAAACTAA,0.288 E-score
12,AATACCAA,0.0615 E-score
13,CTTGTCGA,-0.198 E-score
14,GCTCATAA,-0.0394 E-score
15,CAGCTCAC,-0.148 E-score
16,AAGCACTT,-0.128 E-score
17,GCCACACA,-0.0797 E-score
18,CGATGGCC,-0.114 E-score
19,ATCCCTTC,-0.217 E-score
20,AGTTTTCA,0.0286 E-score
21,GAACTCGA,0.0522 E-score
22,AGCAATCA,0.238 E-score
